{"source": "patent US5807729A", "about": "“Metalloprotease having increased activity” (Novo Nordisk A/S, priority 1995, dated 1998)", "system": "pro-trypsin-like F. oxysporum protease", "assay": "Processing of pro-trypsin-like F. oxysporum protease to active trypsin-like protease", "settings": "pro-trypsin-like protease 100 ug/ml; within 1 hr.", "description": "Activatable pro-trypsin-like F. oxysporum protease is determined in microtiter wells as released trypsin-like F. oxysporum protease (tryptic) activity from pro-trypsin-like F. oxysporum protease after a 40 minute pre-incubation at room temperature with purified Fusarium oxysporum metalloprotease (approximately 6 ug).\nProcessed pro-trypsin-like F. oxysporum protease(i.e. mature trypsin-like F. oxysporum protease) activity is determined directly from microtiter plates containing the pre-incubated metalloprotease/pro-trypsin-like F. oxysporum protease cocktail (total volume=100 microliters), and 100 microliters of substrate (87 mg/ml.L-BAPNA stock in DMSO diluted 50-fold in sample buffer). Again, active trypsin-like F. oxysporum protease is determined as an increase in absorbance at 405 nm immediately after L-BAPNA addition.\nPurified pro-trypsin-like F. oxysporum protease is added to fresh A. oryzae fermentation broths containing the recombinant p45 metalloprotease (approximately 90 mg/L) and incubated for either 1, 2, or 3 hours at room temperature. Levels of pro-trypsin-like F. oxysporum protease in the incubation mixtures range from 100 ug/ml to 13 mg/ml. Therefore, under these conditions, the recombinant p45 metalloprotease can easily process 80-100% of the activatable pro-trypsin-like F. oxysporum protease within a 1 hour time period. […]", "data": [{"molecule": "B.s. Thermolysin: thermolysin / neutral metalloprotease from Bacillus stearothermophilus (B.s.) (protein, UniProt P43133 236-551, looked up) Thermolysin: ITGTSTVGVGRGVLGDQKNINTTYSTYYYLQDNTRGNGIFTYDAKYRTTLPGSLWADADNQFFASYDAPAVDAHYYAGVTYDYYKNVHNRLSYDGNNAAIRSSVHYSQGYNNAFWNGSQMVYGDGDGQTFIPLSGGIDVVAHELTHAVTDYTAGLIYQNESGAINEAISDIFGTLVEFYANKNPDWEIGEDVYTPGISGDSLRSMSDPAKYGDPDHYSKRYTGTQDNGGVHINSGIINKAAYLISQGGTHYGVSVVGIGRDKLGKIFYRALTQYLTPTSNFSQLRAAAVQSATDLYGSTSQEVASVKQAFDAVGVK", "values": [{"measurement": "moles of pro-trypsin-like protease processed per mole of metalloprotease", "result": "one mole of the B.s. metalloprotease is required to process one mole of pro-trypsin-like F. oxysporum protease"}]}]}
